Hit rate of the full screen: of about 310,000 compounds, about 14,000 (4.5%) showed an effect of 50% or more. Effects have a minus sign here. This is one part of the list.
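Further: peak tail current of the secondary pulse compared with the same well before compound.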

For this test, the target named is human ether-à-go-go-related gene (hERG) potassium channel (human, UniProt Q12809). Briefly: primary screen, population patch clamp on CHO cells stably expressing hERG.
human ether-à-go-go-related gene (hERG) potassium channel, sequence (Q12809 whole entry, looked up): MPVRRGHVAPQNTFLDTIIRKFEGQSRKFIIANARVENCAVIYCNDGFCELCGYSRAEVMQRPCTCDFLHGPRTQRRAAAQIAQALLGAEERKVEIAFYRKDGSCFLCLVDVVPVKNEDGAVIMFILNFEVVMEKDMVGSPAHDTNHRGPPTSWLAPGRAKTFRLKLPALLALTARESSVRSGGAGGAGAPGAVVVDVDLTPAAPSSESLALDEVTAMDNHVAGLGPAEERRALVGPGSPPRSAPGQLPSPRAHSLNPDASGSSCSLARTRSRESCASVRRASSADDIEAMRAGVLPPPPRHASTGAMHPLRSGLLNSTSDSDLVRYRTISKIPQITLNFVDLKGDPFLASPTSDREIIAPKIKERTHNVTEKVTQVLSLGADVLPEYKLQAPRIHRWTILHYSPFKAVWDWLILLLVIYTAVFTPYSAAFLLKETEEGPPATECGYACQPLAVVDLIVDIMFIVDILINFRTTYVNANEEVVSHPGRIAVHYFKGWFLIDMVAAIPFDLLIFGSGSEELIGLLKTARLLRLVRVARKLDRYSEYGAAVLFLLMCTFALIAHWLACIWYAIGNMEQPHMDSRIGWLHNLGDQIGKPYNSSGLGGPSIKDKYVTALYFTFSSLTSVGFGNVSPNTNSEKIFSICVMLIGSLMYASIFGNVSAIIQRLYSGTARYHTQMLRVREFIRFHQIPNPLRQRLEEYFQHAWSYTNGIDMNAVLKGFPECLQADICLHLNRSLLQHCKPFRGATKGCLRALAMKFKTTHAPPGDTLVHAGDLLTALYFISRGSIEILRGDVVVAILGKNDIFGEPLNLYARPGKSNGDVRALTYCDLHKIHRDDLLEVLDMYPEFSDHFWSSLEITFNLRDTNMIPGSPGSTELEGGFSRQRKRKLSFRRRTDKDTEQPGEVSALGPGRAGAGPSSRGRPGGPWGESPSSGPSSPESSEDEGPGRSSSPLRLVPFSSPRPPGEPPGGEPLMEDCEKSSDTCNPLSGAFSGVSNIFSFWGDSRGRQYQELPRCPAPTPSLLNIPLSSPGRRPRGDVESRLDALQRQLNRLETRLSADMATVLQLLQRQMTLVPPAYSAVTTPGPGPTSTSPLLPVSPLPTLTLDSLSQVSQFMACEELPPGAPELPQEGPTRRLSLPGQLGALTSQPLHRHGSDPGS
As to `CCOc1ccc(-c2c(=O)n(OCC)c3ccccc3[n+]2[O-])cc1`, the “hERG current change (%, negative = inhibition) at 10uM” value is listed as -33%.
With `Cc1ccc(-n2cccc2/C=C2/C(=N)N3C(=NC2=O)SN=C3S(C)(=O)=O)cc1`, the “hERG current change (%, negative = inhibition) at 10uM” value amounted to 4.34%.
The result for `CS(=O)(=O)c1ccc(Cl)c(NC(=O)CCc2ccccc2)c1` reads -33.6%; that for `COc1ccccc1NC(=S)N1CCN(c2nc(-c3ccccc3)cs2)CC1`, 8.15%.
On to `CCOc1cc(C(=O)OCc2ccc([N+](=O)[O-])cc2)ccc1OCC(=O)N1CCOCC1`, for which the “hERG current change (%, negative = inhibition) at 10uM” value is given as -42.7%.
The result for `COCCCNCCCOc1ccc(Cl)cc1C(C)(C)C` reads -57.5%; that for `CCOC(=O)c1ccc(NC(=S)Nc2ccccn2)cc1`, 15.4%; that for `Brc1ccc(-c2noc(CCc3ccccc3)n2)o1`, -2.91%.
Next, `Br.NC12CC3CC(C1)CC(O)(C3)C2`: 12.7%; `C=CCc1cccc2cc(C(=O)NNC(=O)CC#N)c(=O)oc12`: 1.21%.
`COc1ccc(NC(=O)CC(NCCc2ccccc2)C(=O)O)c(OC)c1` (stereo not drawn): the “hERG current change (%, negative = inhibition) at 10uM” value is 5.31%.
The result for `Cc1ccc(C(=O)CCC(=O)NNC(=O)c2ccccc2O)cc1` reads -4.07%.
The result for `CCOc1ccccc1N1CC(C(=O)N2CCN(Cc3ccc(C#N)cc3)CC2)CC1=O` (stereo not drawn) reads -67.3%; that for `COc1ccc(-c2[nH]nc(-c3ccccc3)c2-c2nc3ccccc3[nH]2)cc1`, -3.17%; that for `Cc1ccc(C2(C)NC(=O)N(CC(=O)Nc3cc(S(=O)(=O)N(C)C)ccc3C)C2=O)cc1` (stereo not drawn), -24.9%.
Turning to `CCOc1ccc(C(C)=O)cc1CSc1nnc(-c2cccs2)n1CC1CCCO1` (stereo not drawn), the “hERG current change (%, negative = inhibition) at 10uM” value was -26.8%.
Next, `CC(O)c1cccc(NC(=O)CCCc2ccccc2)c1` (stereo not drawn): 19.1%.
The result for `CCOC(=O)c1cnc(-c2ccccc2)nc1Oc1ccc(OC)cc1` reads 14.2%.
As to `CSc1ccc(C#N)cc1NC(=O)c1ccccc1`, the “hERG current change (%, negative = inhibition) at 10uM” value was -36.5%.
The result for `CC(C)SC1=NC(C)(C)C=C(/C=C/c2c(Cl)cccc2Cl)N1` reads 7.98%; that for `CCOc1ccc(/C=N/n2nnnc2N)cc1O`, -21.5%.
The result for `Cn1nnc(NCc2cc(Br)ccc2OCc2cccs2)n1` reads -3.74%; that for `C[C@H]1CCC/C=C/[C@@H]2C[C@H](O)C[C@H]2[C@H](O)/C=C/C(=O)O1` [56463468], 7.27%.
Next, `Cc1ccc(CNC(=O)c2ccc(C)c(S(=O)(=O)N3CCCCC3)c2)cc1`: -17.9%; `COc1ccc(NC(=O)c2ccc(-c3ccc(C)c4ccccc34)o2)cc1`: -1.32%; `COCCN(C(=O)Cn1nnc2ccccc21)C(C(=O)NC1CCCC1)c1ccc(OC)cc1OC` (stereo not drawn): -2.72%.
Regarding `Nc1nc(-c2nonc2N)no1`, the “hERG current change (%, negative = inhibition) at 10uM” value came to 14.5%.
Next, `O=C(COc1ccc(Cc2ccccc2)cc1)c1ccc(F)cc1`: 3.42%; `O=c1c2ccccc2nnn1CSc1nnc(-c2ccco2)o1`: -14.8%.
Next, `CCOc1ccc(CCNC(=O)COC(=O)c2ccc(F)c(S(=O)(=O)N3CCOCC3)c2)cc1OCC`: -25.5%; `O=C(NCCc1c[nH]c2ccccc12)/C(=C/c1cccnc1)NC(=O)c1ccco1`: -64.7%.
Next, `Cc1ccc(CN2CCN(/N=C/c3cc(Br)ccc3O)CC2)cc1`: 12.4%.
Regarding `Cc1nc2ccccn2c1C(=O)NNC(=S)Nc1ccc(Cl)cc1`, the “hERG current change (%, negative = inhibition) at 10uM” value was -17.3%.
The result for `COc1ccccc1NS(=O)(=O)c1cc(C(=O)NCCN2CCOCC2)ccc1Cl.Cl` reads -8.48%; that for `O=C(COC(=O)c1n[nH]c2ccccc12)Nc1ccc(S(=O)(=O)N2CCCC2)cc1`, -6.38%.
The result for `Cc1ccc(NC(=O)c2cnn(-c3ccccc3)c2C)cc1` reads -3.55%; that for `ON1C2CCCCC2N(O)C1c1ccccc1` (stereo not drawn), 13.2%.
Next, `COc1cccc(-c2cc(C(=O)NC3CCCCC3)no2)c1`: 3.67%; `COc1ccccc1NC(=S)N1CCC(NC(=O)C23CC4CC(CC(C4)C2)C3)CC1`: 25.6%; `Cc1cc(C(=O)COC(=O)C2=NNC(=O)CC2)c(C)n1CCc1ccccc1`: 0.577%.
`Nc1ccc(-c2cc(-c3cccc(N)c3)nc(-c3ccccc3)n2)cc1`: the “hERG current change (%, negative = inhibition) at 10uM” value is on record as 12%.
Next, `CC(C)N(Cc1ccccc1)S(=O)(=O)c1ccc(Cl)nc1`: -15.8%.
The result for `O=C(NCc1ccc(Cl)cc1Cl)C1CC(=O)N(Cc2ccccc2)C1` (stereo not drawn) reads -47.9%; that for `O=C(NC1CCCCC1)[C@@H]1CC=C[C@@H]2CCN(Cc3ccccc3)C(=O)[C@@H]21`, 8.49%; that for `O=C(Cc1ccc(Cl)cc1)NNC(=O)c1ccco1`, 10.2%.

Values taken from PMC4336329 (PLoS ONE, 2015).
